B1: Caulobacter ParB omega fusion; a variant is named by its letters at X, in order, B8GW30 (parent)
chain: MESVVVGEPGMSEGRRGLGRGLSALLGEVDAAPAQAPGEQLGGSREAPIEILQRNPDQPRRTFREEDLEDLSNSIREKGVLQPILVRPSPDTAGEYQIVAGERAWRAAQRAGLKTVPIMVRELDDLAVLEIGIIENVQRADLNVLEEALSYKVLMEKFERTQENIAQTIGKSXSHVANXMRLLXLPDEVQSYLVSGELTAXHARAIAAAADPVALAKQIIEGGLSVRETEALARKAPNLSAGKSKGGRPPRVKDTDTQALESDLSSVLGLDVSIDHRGSTGTLTITYATLEQLDDLCNRLTRGI

The full ranking holds about 81,000 sequences; the median of “one-hybrid fitness for binding parS DNA” is about -0.17, and the highest 2% start at about 0.51. Some of the results follow.

These results are taken from a collection of fitness landscapes (doi:10.1016/j.celrep.2020.107928).

Variants of B1 are the subject of this assay. As to the kind of experiment: one-hybrid fitness for binding parS DNA (scaled: cognate 1, non-cognate 0); higher = stronger binding. To be noted: with parS DNA site. The method in brief: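 The reporter was HIS3, with the binding site 19 bp from the promoter, in E. coli USO used for bacterial one-hybrid selection of Caulobacter ParB libraries with four specificity codons randomised. Growth was on M9 lacking histidine, with 0.1 mM IPTG and 5 mM 3-AT, for 48 hours at 37°C. Illumina sequencing covered plasmids before and after selection; three replicate libraries were pooled and variants with under 10 reads dropped. A fitness score is the log change in variant-to-wild-type read ratio, rescaled to the cognate and non-cognate references.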
As to CCRN, the “one-hybrid fitness for binding parS DNA” value was at most 0.2. On to HGNS, for which the “one-hybrid fitness for binding parS DNA” value is at most 0.2. Next, LIVV: at most 0.2.

As for KIKR, the “one-hybrid fitness for binding parS DNA” value is at most 0.2. The result for LYQD reads at most 0.2. The result for IYSG reads at most 0.2. Next, TPWG: at most 0.2.

As to ETGS, the “one-hybrid fitness for binding parS DNA” value is at most 0.2. Next, VVKC: at most 0.2. Next, LIFY: at most 0.2; QVKW: at most 0.2.

In the case of EQIM, the “one-hybrid fitness for binding parS DNA” value is at most 0.2.

AAFW: the “one-hybrid fitness for binding parS DNA” value is at most 0.2. Next, PSNS: at most 0.2. Next, CFMR: at most 0.2. The result for MLCI reads at most 0.2; that for TLWL, at most 0.2; that for MHMM, 0.262. For the variant SFTS, the “one-hybrid fitness for binding parS DNA” value was at most 0.2. The result for PEYD reads at most 0.2. Next, SDGG: at most 0.2. Next, VRPY: at most 0.2; KMHC: at most 0.2; PQTT: at most 0.2. In the case of PKFS, the “one-hybrid fitness for binding parS DNA” value is at most 0.2.

Take YDSS: the “one-hybrid fitness for binding parS DNA” value is at most 0.2. Next, KNGS: at most 0.2; RWMI: at most 0.2. Regarding HDEG, the “one-hybrid fitness for binding parS DNA” value was at most 0.2. On to GAYA, for which the “one-hybrid fitness for binding parS DNA” value was at most 0.2. Next, WYPV: at most 0.2. The result for QVTI reads at most 0.2; that for VSMI, at most 0.2. The result for DNFC reads at most 0.2; that for HHKQ, at most 0.2.

As to YYLW, the “one-hybrid fitness for binding parS DNA” value is at most 0.2. The result for GPHK reads at most 0.2; that for SETC, at most 0.2; that for NNLC, at most 0.2. The result for YYNV reads at most 0.2. VLNA: the “one-hybrid fitness for binding parS DNA” value was at most 0.2. The result for WHQW reads at most 0.2. As for SYTT, the “one-hybrid fitness for binding parS DNA” value is at most 0.2. Turning to SKHD, the “one-hybrid fitness for binding parS DNA” value is at most 0.2. RCTT: the “one-hybrid fitness for binding parS DNA” value came to 0.949. The result for CDNS reads at most 0.2; that for PMCY, at most 0.2; that for LEGK, at most 0.2. Next, HKKC: at most 0.2. The result for TKEG reads at most 0.2.

In the case of CKAI, the “one-hybrid fitness for binding parS DNA” value is at most 0.2.

For PIRQ, the “one-hybrid fitness for binding parS DNA” value was at most 0.2. The result for WYGN reads at most 0.2; that for QLVC, at most 0.2. The result for RLIP reads at most 0.2; that for RAIR, at most 0.2; that for IFVE, at most 0.2. The result for HLDI reads at most 0.2; that for RSAQ, at most 0.2. As for GTLN, the “one-hybrid fitness for binding parS DNA” value was at most 0.2. Next, WGTR: at most 0.2; SFTW: at most 0.2. Next, SVDF: at most 0.2; EKYS: at most 0.2. Next, YLTC: at most 0.2; QIDV: at most 0.2. On to GMLS, for which the “one-hybrid fitness for binding parS DNA” value was at most 0.2. Next, LDLL: at most 0.2; WKPK: at most 0.2; PLHW: at most 0.2.

With LNFR, the “one-hybrid fitness for binding parS DNA” value is at most 0.2. Next, MARI: at most 0.2; MTGN: at most 0.2.

Turning to PYIS, the “one-hybrid fitness for binding parS DNA” value was at most 0.2. The result for HLKG reads at most 0.2; that for GWTD, at most 0.2. For VWNG, the “one-hybrid fitness for binding parS DNA” value is at most 0.2.
